The source of these data is article PMC4336329 (PLoS ONE, 2015).

Screen size: about 310,000 compounds; about 2,200 (0.71%) showed an effect of 50% or more. Effects have a minus sign here. The list shows a part of the results.

Chain of human ether-à-go-go-related gene (hERG) potassium channel (Q12809 whole entry, looked up): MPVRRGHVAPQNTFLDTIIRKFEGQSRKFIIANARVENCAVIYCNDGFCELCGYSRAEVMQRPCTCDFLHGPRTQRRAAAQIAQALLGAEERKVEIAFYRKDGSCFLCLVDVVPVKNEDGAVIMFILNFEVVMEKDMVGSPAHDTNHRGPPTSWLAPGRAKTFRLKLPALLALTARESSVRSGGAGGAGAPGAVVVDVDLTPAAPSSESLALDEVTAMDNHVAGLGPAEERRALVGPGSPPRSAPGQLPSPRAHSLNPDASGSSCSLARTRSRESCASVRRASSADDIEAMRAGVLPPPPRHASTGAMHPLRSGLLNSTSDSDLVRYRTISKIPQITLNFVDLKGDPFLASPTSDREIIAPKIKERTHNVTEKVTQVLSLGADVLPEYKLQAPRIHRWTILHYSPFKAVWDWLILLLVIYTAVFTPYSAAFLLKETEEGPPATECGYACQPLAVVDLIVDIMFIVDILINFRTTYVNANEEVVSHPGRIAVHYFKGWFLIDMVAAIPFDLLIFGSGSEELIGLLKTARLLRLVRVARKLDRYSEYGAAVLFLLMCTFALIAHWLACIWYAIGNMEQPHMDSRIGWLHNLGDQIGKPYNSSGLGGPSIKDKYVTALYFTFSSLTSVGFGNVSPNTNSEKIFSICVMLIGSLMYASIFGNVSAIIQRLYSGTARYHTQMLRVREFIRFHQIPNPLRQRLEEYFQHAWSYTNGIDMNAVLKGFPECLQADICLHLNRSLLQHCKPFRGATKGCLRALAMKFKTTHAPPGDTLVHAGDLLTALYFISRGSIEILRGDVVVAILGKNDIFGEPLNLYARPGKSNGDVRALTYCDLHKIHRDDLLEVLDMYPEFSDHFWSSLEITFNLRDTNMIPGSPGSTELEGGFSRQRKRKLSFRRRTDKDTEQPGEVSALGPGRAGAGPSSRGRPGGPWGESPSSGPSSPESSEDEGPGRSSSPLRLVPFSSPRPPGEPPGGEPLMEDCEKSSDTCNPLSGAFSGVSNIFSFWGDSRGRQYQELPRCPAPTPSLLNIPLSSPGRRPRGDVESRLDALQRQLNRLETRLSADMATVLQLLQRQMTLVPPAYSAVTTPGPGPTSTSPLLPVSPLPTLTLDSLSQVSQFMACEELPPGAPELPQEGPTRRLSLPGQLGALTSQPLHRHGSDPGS

The assay concerns the target human ether-à-go-go-related gene (hERG) potassium channel (human, UniProt Q12809). Kind of assay: primary screen, population patch clamp on CHO cells stably expressing hERG.
In the case of `O=C(CCCN1C(=O)c2ccccc2C1=O)Nc1nncs1`, the “hERG current change (%, negative = inhibition) at 1uM” value is recorded as 14.9%.
For `COc1ccc(Br)cc1/C=N/NC(=O)c1ccc2nc[nH]c2c1` the value was 18.8%; for `Cn1cccc1-c1nc2ccc([N+](=O)[O-])cc2[nH]1`, 18.2%; for `CCOC(=O)C1=C(C)NC(=O)CC1c1cc2c(cc1[N+](=O)[O-])OCO2` (stereo not shown), 14.6%.
Take `Cc1ccccc1NC(=S)NN1CCN(C)CC1`: the “hERG current change (%, negative = inhibition) at 1uM” value stood at 0.714%.
For the compound `Clc1ccc(OCCN2CCCCC2)c(Cl)c1.O=C(O)C(=O)O`, the “hERG current change (%, negative = inhibition) at 1uM” value is -2.54%.
The same measure for `COc1ccc(C2CC(c3ccc(Cl)cc3)=NN2C(C)=O)cc1` (stereo not shown): 14%.
For `c1ccc2c(-c3ccncc3)c[nH]c2c1` the value was 12%; for `COc1ccc(/C=C/c2nnc(NC(=O)C(C)C)s2)cc1`, 11.6%; for `Cc1cccc(CN2C(=O)N/C(=C/c3cc(C)n(-c4cc(C)ccn4)c3C)C2=O)c1`, 17.6%.
For `COCC(C)N1CCC(n2nccc2NC(=O)CCCc2ccccc2)CC1` (stereo not shown) the value was 9.57%; for `CN(CC(=O)NCc1ccc2c(c1)OCO2)CC(=O)Nc1ccc(F)c(F)c1F`, 1.88%; for `CC(=O)c1cccc(NC(=O)Nc2ccc3c(c2)N(C)C(=O)CS3)c1`, -6.26%.
As to `O=C(COC(=O)CNC(=O)c1ccc(Cl)cc1Cl)NC(=O)NC1CCCCC1`, the “hERG current change (%, negative = inhibition) at 1uM” value is given as 1.6%.
With `COc1ccccc1CNC(=O)COC(=O)CNS(=O)(=O)c1ccc(C)cc1`, the “hERG current change (%, negative = inhibition) at 1uM” value is recorded as -13.3%.
The same measure for `Cc1nn(C)c(Cl)c1NC(=O)OCc1ccccc1`: -14%.
For `COc1ccc(OC)c(N(CC(=O)NC2CC3CCC2C3)S(=O)(=O)c2ccccc2)c1` (stereo not shown) the value was -7.11%; for `COc1ccc(N2C(=O)C(Cl)=C(Oc3cccc(OC)c3)C2=O)cc1`, 14.1%.
For `COc1ccc(NC(=O)CCOc2ccc(C)cc2)cc1S(=O)(=O)N1CCOCC1` the value was 0.907%; for `COc1ccc(NC(=O)c2cc(-c3cccc(OC)c3)on2)cc1`, 11.2%; for `O=C(CCCN=C1NS(=O)(=O)c2ccccc21)OCc1ccc(F)cc1`, 15.4%.
As for `O=C(c1cccc(Cl)c1)N(Cc1ccco1)C1CCS(=O)(=O)C1` (stereo not shown), the “hERG current change (%, negative = inhibition) at 1uM” value was found to be 10.5%.
In the case of `COc1ccc(OCCC(=O)OCC(=O)NC(=O)NC(C)(C)C)cc1`, the “hERG current change (%, negative = inhibition) at 1uM” value is reported as 7.87%.
For `COc1ccc(-n2c(SC)nc(O)cc2=O)cc1`, the “hERG current change (%, negative = inhibition) at 1uM” value came to 0.301%.
With `COC(=O)C1=C(c2ccc(OC(F)(F)F)cc2)C[C@@H]2CC[C@H]1N2C(=O)NCC1CC1`, the “hERG current change (%, negative = inhibition) at 1uM” value was -7.23%.
On to `Cc1nn(C)c(C(=O)N/N=C/c2cccnc2)c1Cl`, for which the “hERG current change (%, negative = inhibition) at 1uM” value turned out to be 19%.
For `COc1ccc(C(=O)N2CCOCC2)cc1S(=O)(=O)N1CCC(C)CC1` the value was -2.57%; for `CCOCCCNC(=O)C(NC(=O)c1ccc2c(c1)OCO2)c1ccc(OC)cc1` (stereo not shown), 8.3%; for `CC(C)(C)NC(=O)NC(=O)COC(=O)c1ccc2c(c1)S(=O)(=O)N=C1CCCCCN12`, 13.5%.
Consider `C[C@]12CC[C@@H](O)C[C@@H]1CC[C@@H]1[C@@H]2CC[C@]2(C)[C@@H](O)CC[C@@H]12`, for which the “hERG current change (%, negative = inhibition) at 1uM” value is reported as 16.4%.
Turning to `COc1ccc(-n2c(Cc3cccn3C)nnc2SCC(=O)NCc2ccc(F)cc2)cc1`, the “hERG current change (%, negative = inhibition) at 1uM” value is listed as -3.72%.
The same measure for `COc1cccc2sc(N(CCCN(C)C)C(=O)CCS(=O)(=O)c3ccccc3)nc12`: -1.26%; for `Cc1ccc(C(=O)N(C)CC(=O)Nc2ccc(N3CCOCC3)cc2)s1`: -3.61%; for `CCc1ccccc1NC(=S)NCC1CCN(c2ccc(OC)cc2)C1` (stereo not shown): 0.763%.
Consider `Cc1cc(NC(=O)CSc2nc3c(C)cccc3cc2C#N)no1`, for which the “hERG current change (%, negative = inhibition) at 1uM” value is on record as 5.82%.
Take `COc1cc(C(=O)OCC(=O)N2CCOCC2)c([N+](=O)[O-])cc1OC`: the “hERG current change (%, negative = inhibition) at 1uM” value was found to be 7.73%.
Regarding `O=C(O)C(=O)O.O=C1CN(C(=O)CNCc2cccc(Cl)c2)c2ccccc2N1`, the “hERG current change (%, negative = inhibition) at 1uM” value is 11.1%.
As for `Cc1ccc(S(=O)(=O)N(CC(O)CN2CCCC2)c2ccccc2)cc1` (stereo not shown), the “hERG current change (%, negative = inhibition) at 1uM” value is -44.8%.
For `CC(C)N(Cc1nc(-c2ccccc2)no1)C(=O)C1CCCCC1` the value was 2.52%.
As to `Cc1c(C)c2ccc(OC(C)C(=O)NC3CC(C)(C)NC(C)(C)C3)cc2oc1=O` (stereo not shown), the “hERG current change (%, negative = inhibition) at 1uM” value amounted to 14.3%.
The same measure for `COC(=O)c1cccc(NC(=O)c2ccc[n+]([O-])c2)c1`: 17.9%.
For `COc1ccccc1NS(=O)(=O)c1ccc(C(=O)N2CCN(c3ccccc3)CC2)cc1` the value was 2.94%.
The same measure for `Cc1ccc(C(=O)OCC(=O)NCc2cc(C)c(O)c(C)c2)cc1S(=O)(=O)N1CCCCC1`: -13.2%.
As for `Cc1noc(C)c1S(=O)(=O)N1CCCC(C(=O)Nc2cccnc2)C1` (stereo not shown), the “hERG current change (%, negative = inhibition) at 1uM” value worked out at 8.75%.
The same measure for `O=C(COC(=O)c1ccc(O)cc1O)NCCN1C(=O)CSC1=O`: 12.8%; for `O=C(Nc1ccc(Br)cn1)c1cccc(-c2cc3ccccc3oc2=O)c1`: 14.7%; for `O=C(O)c1cccc(-c2ccc3c(c2)OCO3)c1`: 16.2%.
For `CC(C(=O)NN=C(c1ccccc1)c1ccccc1)N1CCOCC1` (stereo not shown) the value was -5.45%; for `C=CCOc1ccc(Br)cc1CNCC.Cl`, 3.49%.
As for `CC(CNC(=O)CCc1nnc2ccc(N3CCC4(CC3)OCCO4)nn12)c1ccccc1` (stereo not shown), the “hERG current change (%, negative = inhibition) at 1uM” value is recorded as 9.41%.
For `N#Cc1c(C(F)(F)F)cc(-c2ccccc2)nc1SCC(=O)N1CCOCC1` the value was 5.68%; for `COc1ccccc1CNC(=O)c1cc(C2CC2)nc2c1cnn2C(C)C`, 7.17%.
The same measure for `CC(=O)Nc1ccc(S(=O)(=O)NCCC(=O)OCC(=O)c2ccc(Br)cc2)cc1`: -6.19%; for `Cl.c1ccc(Cc2ccc(OCCn3ccnc3)cc2)cc1`: 10.5%; for `CCN(Cc1ccccc1)Cc1cc(OC)cc(OC)c1`: -15.1%.
As for `O=C1C2CC=C(Cl)CC2C(=O)N1CCCCCCN1C(=O)C2CC=C(Cl)CC2C1=O` (stereo not shown), the “hERG current change (%, negative = inhibition) at 1uM” value came out at 2.9%.
For `CCN1C(=O)C(=Cc2c(C)n(CC(=O)NCC3CCCO3)c3ccccc23)C(=O)N(CC)C1=S` (stereo not shown) the value was 24.9%.
As to `CCOC(=O)c1[nH]c2ccccc2c1NC(=O)CC(C)C`, the “hERG current change (%, negative = inhibition) at 1uM” value was 12.2%.
Regarding `Cc1ccc(CNc2oc(COc3ccccc3Cl)nc2C#N)cc1`, the “hERG current change (%, negative = inhibition) at 1uM” value is 12%.
The same measure for `Cn1c(C(=O)O)c(CC(=O)Nc2ccc(F)cc2F)c2ccccc21`: 1.29%; for `Cn1c(C(C#N)C(=O)c2sc3ccccc3c2Cl)nc2ccccc21` (stereo not shown): 11.6%.
The same measure for `C=CCn1c(N2CCN(c3ccc(OC)cc3)CC2)nc2c1c(=O)[nH]c(=O)n2C`: -4.37%; for `CC(C(=O)N1CCOCC1)N1c2cccc3cccc(c23)S1(=O)=O` (stereo not shown): 9.87%.
The same measure for `O=C(Nc1ccc(Oc2ncccn2)cc1)c1ccco1`: 12.1%; for `O=C(NCCc1c[nH]c2ccccc12)c1ccc(S(=O)(=O)NCc2ccco2)cc1`: 12.3%; for `C=CCNC(=O)c1ccccc1NC(=O)c1ccc(Cl)c(S(=O)(=O)Nc2ccccc2)c1`: 5.68%.
On to `CCCn1nc(C(=O)NNC(=O)CCCOc2ccc(C)cc2)c2ccccc2c1=O`, for which the “hERG current change (%, negative = inhibition) at 1uM” value was -2.89%.
Consider `CN(Cc1ccc(Cl)c(Cl)c1)C(=O)C1=CC=CN2CCS(=O)(=O)N=C12`, for which the “hERG current change (%, negative = inhibition) at 1uM” value turned out to be 8.22%.
For `COc1cc(OC)c(OC)cc1/C=N/NC(=O)c1cc(-c2cccn2C)n[nH]1` the value was -11.6%; for `O=C(c1ccco1)N1CCN(C(=O)c2cnn3cccnc23)CC1`, 13.5%; for `O=C(c1cc2ccccc2oc1=O)N(Cc1cccs1)Cc1cccs1`, -8.26%.
`COc1ccc(Oc2nc(SC)nc3ccccc23)cc1`: the “hERG current change (%, negative = inhibition) at 1uM” value is 2.03%.
For `O=C1C(=O)N(c2ccccc2)c2ccccc21` the value was -4.46%.
Regarding `N#CC(C#N)=Cc1ccccc1OCc1ccccc1`, the “hERG current change (%, negative = inhibition) at 1uM” value is given as 14.3%.
For `C/C=C/C(=O)N1CC2(CC(c3cccc(NC(=O)CC)c3)=NO2)C[C@H]1C(N)=O` (stereo partly shown) the value was -5.78%; for `Cc1ccc(C)c(NC(=O)C(Sc2nnc(-c3cccs3)o2)c2ccccc2)c1` (stereo not shown), 6.04%.
On to `O/N=C1\CCc2cc(Cl)ccc21`, for which the “hERG current change (%, negative = inhibition) at 1uM” value is reported as -3.06%.
For `O=C1c2ccccc2C(=O)N1CCC(=O)N1CCCc2ccccc21` the value was 3.54%.
`O=C(NCC1CCCO1)C1CCCN(Cc2cnn(-c3ccccc3)c2-n2cccc2)C1` (stereo not shown): the “hERG current change (%, negative = inhibition) at 1uM” value is 5.23%.
With `CCN(C(=O)c1ccc2c(=O)n3c(nc2c1)CCCCC3)c1ccccc1C`, the “hERG current change (%, negative = inhibition) at 1uM” value is reported as 11.6%.
`O=Cc1ccc(O)cc1O`: the “hERG current change (%, negative = inhibition) at 1uM” value was 1.69%.
On to `Cc1cc(N)n(Cc2ccc(Cl)cc2)n1`, for which the “hERG current change (%, negative = inhibition) at 1uM” value is listed as 20.6%.
The same measure for `CCOc1ccc(C(=O)Nc2ccc(N3CCN(C)CC3)cc2)cc1[N+](=O)[O-]`: -7.79%; for `COC(=O)c1cc(NS(=O)(=O)c2ccc(NCc3cccnc3)c(N)c2)cc(C(=O)OC)c1`: -2.44%.
As to `CC(C)(C)c1ccc(OCC(=O)NCCN2CCOCC2)cc1.Cl`, the “hERG current change (%, negative = inhibition) at 1uM” value was 11.6%.
For `CCOC(=O)C(C)c1c(C(=O)c2ccc(C)nc2)c2ccccc2n1C` (stereo not shown) the value was 11.4%; for `CCOC(=O)CC(C(=O)OCC)P(=O)(c1ccccc1)c1ccccc1` (stereo not shown), 7.84%; for `CSc1ccc(CN2CCN(S(=O)(=O)Cc3ccccc3)CC2)cc1`, 8.23%.
